Results on 29 compounds are retold here after publication PMC11995724, “Antibiotic target discovery by integrated phenotypic and activity-based profiling of electrophilic fragments” (Cell chemical biology, 2025).

Hit rate of the full screen: of about 3,200 compounds, about 110 (3.4%) showed an effect of 50% or more. This is one part of the list.

The test system of this test is T1, V. cholerae SAD30.
T1 construct: SAD30
The arrangement: species or system S. aureus MSSA476 (TSB) or V. cholerae SAD30 (LB); 384-well bacterial growth screen at 25 uM, OD600 relative to DMSO control. Conditions: relative growth, OD600, LB; 25 µM; inhibitor.
Consider `CC(Cl)C(=O)N(Cc1ccsc1)C1CC1` (centres unmarked) [7-G11, 2-chloro-N-cyclopropyl-N-[(thiophen-3-yl)methyl]propanamide], for which the “% of control remaining” value worked out at 77.7135%.
For `C=CC(=O)N(C)Cc1nc2c(cnn2C)c(=O)[nH]1` [3-L08, N-methyl-N-({1-methyl-4-oxo-1H,4H,5H-pyrazolo[3,4-d]pyrimidin-6-yl}methyl)prop-2-enamide], the “% of control remaining” value was determined as 93.8541%.
To `C=CC(=O)Nc1cnc2cc(C)nn2c1` [2-M13, N-{2-methylpyrazolo[1,5-a]pyrimidin-6-yl}prop-2-enamide] belongs 94.0558%.
To `C=CC(=O)N(C)CC(=O)N1CCN(c2ccccc2[N+](=O)[O-])CC1` [2-L04, N-methyl-N-{2-[4-(2-nitrophenyl)piperazin-1-yl]-2-oxoethyl}prop-2-enamide] belongs 93.1294%; to `CC(C)c1noc2ncc(C(=O)N3CCSSCC3)cc12` [10-F21, 5-[3-(propan-2-yl)-[1,2]oxazolo[5,4-b]pyridine-5-carbonyl]-1,2,5-dithiazepane], 100.682%; to `CC(Cl)C(=O)NCC1CCN(C)c2ccccc21` (centres unmarked) [7-J11, 2-chloro-N-[(1-methyl-1,2,3,4-tetrahydroquinolin-4-yl)methyl]propanamide], 72.6912%.
As for `O=C(CN(CC1CCCO1)C(=O)CCl)N1CCCC1` (centres unmarked) [7-D18, 2-chloro-N-[2-oxo-2-(pyrrolidin-1-yl)ethyl]-N-[(oxolan-2-yl)methyl]acetamide], the “% of control remaining” value worked out at 74.4094%.
Regarding `Cn1ccnc1C(NC(=O)CCl)c1ccccc1` (centres unmarked) [4-H20, 2-chloro-N-[(1-methyl-1H-imidazol-2-yl)(phenyl)methyl]acetamide], the “% of control remaining” value was 107.138%.
The figure for `COc1cc(C=C(C#N)C(=O)Nc2c(C)cc(C)cc2C)cc(OC)c1` [8-A18, 2-cyano-3-(3,5-dimethoxyphenyl)-N-(2,4,6-trimethylphenyl)prop-2-enamide] is 89.8029%; for `Cl.NC(=O)c1ccccc1N1CCC(NC(=O)CCl)CC1` [7-P14, 2-[4-(2-chloroacetamido)piperidin-1-yl]benzamide hydrochloride] it is 88.9476%; for `C=CC(=O)NCc1ncoc1C(F)(F)F` [3-E18, N-{[5-(trifluoromethyl)-1,3-oxazol-4-yl]methyl}prop-2-enamide] it is 92.2661%.
The figure for `Cc1ccc(NC(=O)C(C#N)=Cc2ccccc2OC(F)F)c(C)c1` [9-K17, 2-cyano-3-[2-(difluoromethoxy)phenyl]-N-(2,4-dimethylphenyl)prop-2-enamide] is 90.6186%; for `Cc1ccc(NC(=O)C2CSCN2C(=O)CCl)c(C)c1` (centres unmarked) [5-M07, 3-(2-chloroacetyl)-N-(2,4-dimethylphenyl)-1,3-thiazolidine-4-carboxamide] it is 94.1473%; for `O=C(CCl)NC1CCC(c2nc(-c3ccccc3)n[nH]2)CC1` (centres unmarked) [6-G19, 2-chloro-N-[4-(3-phenyl-1H-1,2,4-triazol-5-yl)cyclohexyl]acetamide] it is 92.9756%.
In the case of `CC(Cl)C(=O)N(c1cccc(C#N)c1)C1CCC1` (centres unmarked) [6-N22, 2-chloro-N-(3-cyanophenyl)-N-cyclobutylpropanamide], the “% of control remaining” value is given as 93.8857%.
To `O=C(CCl)NCc1ccc(C(=O)N2CCOCC2)cc1` [5-L14, 2-chloro-N-{[4-(morpholine-4-carbonyl)phenyl]methyl}acetamide] belongs 97.846%; to `C=CC(=O)N1CCC(C(=O)NCC(O)c2c(F)cccc2F)CC1` (centres unmarked) [2-P14, N-[2-(2,6-difluorophenyl)-2-hydroxyethyl]-1-(prop-2-enoyl)piperidine-4-carboxamide], 88.4975%; to `CC(Cl)C(=O)N1CCC(Cc2ccccc2)CC1` (centres unmarked) [5-K21, 1-(4-benzylpiperidin-1-yl)-2-chloropropan-1-one], 81.5383%.
Regarding `CC(Cl)C(=O)N(C)c1ccccc1` (centres unmarked) [5-D06, 2-chloro-N-methyl-N-phenylpropanamide], the “% of control remaining” value is 94.6517%.
The figure for `CC(C)NC(=O)C(C#N)=Cc1ccc(C(C)C)cc1` [9-I11, 2-cyano-N-(propan-2-yl)-3-[4-(propan-2-yl)phenyl]prop-2-enamide] is 84.5003%; for `Cc1cc(C(=O)CCl)c(F)cc1F` [10-O03, 2-chloro-1-(2,4-difluoro-5-methylphenyl)ethan-1-one] it is 34.9114%; for `C=CC(=O)NC(Cc1nc(C)no1)c1ccccc1` (centres unmarked) [1-B22, N-[2-(3-methyl-1,2,4-oxadiazol-5-yl)-1-phenylethyl]prop-2-enamide] it is 133.464%.
Turning to `C=CC(=O)N1CCC(C(=O)Nc2cccc(N3CCCC3=O)c2)CC1` [2-H04, N-[3-(2-oxopyrrolidin-1-yl)phenyl]-1-(prop-2-enoyl)piperidine-4-carboxamide], the “% of control remaining” value turned out to be 96.5261%.
The figure for `Cc1ccc(Oc2ccc(NC(=O)CCl)cc2)cc1` [4-K03, 2-chloro-N-[4-(4-methylphenoxy)phenyl]acetamide] is 93.1637%; for `N#CC(=Cc1ccncc1)C(=O)Nc1cccc(Cl)c1` [8-B19, N-(3-chlorophenyl)-2-cyano-3-(pyridin-4-yl)prop-2-enamide] it is 77.5663%; for `C=CC(=O)N1CCC(C(=O)NCc2ccccc2)CC1` [1-I05, N-benzyl-1-(prop-2-enoyl)piperidine-4-carboxamide] it is 92.5262%.
The figure for `COc1ccc(N2C(=O)C=CC2=O)c([N+](=O)[O-])c1` [10-L11, 1-(4-methoxy-2-nitrophenyl)-2,5-dihydro-1H-pyrrole-2,5-dione] is 30.3916%.
Turning to `CC(Cl)C(=O)N(C)Cc1cc(Cl)cn1C` (centres unmarked) [6-P21, 2-chloro-N-[(4-chloro-1-methyl-1H-pyrrol-2-yl)methyl]-N-methylpropanamide], the “% of control remaining” value was 102.531%.
Take `CC(C)c1ccccc1NC(=O)CCl` [4-F06, 2-chloro-N-[2-(propan-2-yl)phenyl]acetamide]: the “% of control remaining” value was 100.582%.
